In one test the target is T1, T7 DNA polymerase exo- (Escherichia phage T7, UniProt P00581, D5A/E7A).
T1 construct: made in house; host or cells: E. coli TOP 10
The experiment in a line: Primer extension with γ-labeled dTTP. Format: biochemical. The note with it: 100 mer template (FIG. 16). Here is the method: Samples contained 50 mM IRD700-labeled primer, 100 nM template, 100 nM polymerase, 20 μM each dNTP with either unlabeled or γ-labeled dTTP. Incubation times (a-f) were 5, 10, 30, 60, 90 and 120 sec at 20° C.
FIG. 16 illustrates that there is no dTTP contamination in other components of the reaction mix. Lane 1 is a negative control showing the primed single-strand template.
To rule out the possibility of contamination, the γ-dTTP-BQS(++)-BodipyTR was analyzed by HPLC for unlabeled dTTP: none was found. Another experiment was done with a different template (the 100 mer used for the high-throughput polymerase assay) to try to detect dTTP contamination in other components of the reaction mix (FIG. 16): none was found. PPi-F is produced using T7 polymerase. The cleavage product is purified free from Mg^++.

The test system of test [1] is T7 DNA polymerase. The conditions noted are these: published value, Patel et al. 1991; read-out: Km for dTTP (published value); cited from earlier work.
Test [2] addresses T7 DNA polymerase (Escherichia phage T7, UniProt P00581, DEL118-145). The note with it: 50 μM dATP, dCTP, dGTP; 37° C. for 30 min.

SMILES strings stand for the structures.

Turning to `Cc1cn([C@H]2C[C@H](O)[C@@H](COP(=O)(O)OP(=O)(O)OP(=O)(O)O)O2)c(=O)[nH]c1=O` [dTTP], on T7 DNA polymerase exo-, the primer extension product entry is “fully-double-stranded primer extension product”. The Km in the test on T7 DNA polymerase [1] is 21 µM.
For `O=c1ccn([C@H]2C[C@H](O)[C@@H](COP(=O)(O)OP(=O)(O)OP(=O)(O)O)O2)c(=O)[nH]1` [dUTP], the “incorporation of γ-dUTP analogs / dUTP (FIG. 6)” value at T7 DNA polymerase [2] is given as “synthesized full-length product”.

The values above are taken from patent publication US20040259082A1 (priority 2001, published 2004).
